In the supplement of paper PMC10037445:
Over roughly 2,900 compounds, “NF-kB SEAP reporter activity, fold change vs agonist alone” has its median near 0.99; the highest 2% begin near 2.6. The list shows a part of the results.

How the values were obtained:
RAW-Dual [1] = assay: NF-kB SEAP reporter activity, fold change vs agonist alone; cytotoxicity flag (confluency mask): not cytotoxic; higher = enhanced NF-kB activity
Outline: (§1)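 RAW-Dual macrophages were seeded in DMEM at 50,000 cells/well in 384-well plates, given 50 nL of library stock by pin tool, and given a PRR agonist 1 h later. Plates were held at 37 °C, 5% CO2 for 20 hours, after which supernatant was read for IRF by QuantiLuc luminescence and for NF-κB by QuantiBlue absorbance at 620 nm. Reporter activity is expressed as fold change over wells that received agonist alone. A well was called cytotoxic when IncuCyte confluency fell below 70% of agonist controls in both mask sets.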

RAW-Dual [2] = assay: NF-kB SEAP reporter activity, fold change vs agonist alone; higher = enhanced NF-kB activity
Outline: as §1

RAW-Dual [3] = assay: NF-kB SEAP reporter activity, fold change vs agonist alone; cytotoxicity flag (confluency mask): cytotoxic (confluency <70% of control); higher = enhanced NF-kB activity
Outline: as §1

[4] = agonist: ODN 1826 (TLR9) 0.5 ug/mL
[5] = agonist: Pam2CSK4 (TLR2/6) 0.1 ug/mL
[6] = agonist: Pam3CSK4 (TLR2/1) 0.1 ug/mL
[7] = library stock concentration (final ~1000-fold dilution): 10 mM, cytotoxicity flag (confluency mask): not cytotoxic, agonist: Imiquimod (TLR7) […]
[8] = library stock concentration (final ~1000-fold dilution): 10 mM, cytotoxicity flag (confluency mask): not cytotoxic, agonist: MPLA (TLR4) […]
[9] = library stock concentration (final ~1000-fold dilution): 10 mM, cytotoxicity flag (confluency mask): cytotoxic (confluency <70% of control), agonist: Imiquimod (TLR7) […]
[10] = library stock concentration (final ~1000-fold dilution): 10 mM, cytotoxicity flag (confluency mask): cytotoxic (confluency <70% of control), agonist: MPLA (TLR4) […]

COc1ccc(C2CC(c3ccccc3)=NN2c2ccc(S(N)(=O)=O)cc2)cc1 (stereo not drawn) (library stock concentration (final ~1000-fold dilution): 10 mM)
NF-kB SEAP reporter activity (RAW-Dual [1]; agonist: LPS (TLR4) 0.1 ug/mL): 0.546
NF-kB SEAP reporter activity (RAW-Dual [1]; [4]): 0.328
NF-kB SEAP reporter activity (RAW-Dual [1]; [5]): 0.3
NF-kB SEAP reporter activity (RAW-Dual [1]; [6]): 0.219

COc1ccc(C2CC(c3ccccc3)=NN2c2ccc(S(N)(=O)=O)cc2)cc1 (stereo not drawn)
NF-kB SEAP reporter activity (RAW-Dual [2]; [7]): 0.545
NF-kB SEAP reporter activity (RAW-Dual [2]; [8]): 0.604

CCCC(=O)[O-].[Na+]
NF-kB SEAP reporter activity (RAW-Dual [2]; library stock concentration (final ~1000-fold dilution): 10 mM water, cytotoxicity flag (confluency mask): not cytotoxic, agonist: Imiquimod (TLR7) […]): 0.965
NF-kB SEAP reporter activity (RAW-Dual [2]; library stock concentration (final ~1000-fold dilution): 10 mM water, cytotoxicity flag (confluency mask): not cytotoxic, agonist: MPLA (TLR4) […]): 1.02

CCCC(=O)[O-].[Na+] (library stock concentration (final ~1000-fold dilution): 10 mM water)
NF-kB SEAP reporter activity (RAW-Dual [1]; agonist: LPS (TLR4) 0.1 ug/mL): 1.21
NF-kB SEAP reporter activity (RAW-Dual [1]; [4]): 1.1
NF-kB SEAP reporter activity (RAW-Dual [1]; [5]): 1.08
NF-kB SEAP reporter activity (RAW-Dual [1]; [6]): 1.21

Cc1cc(Nc2cc(N3CCN(C)CC3)nc(/C=C/c3ccccc3)n2)n[nH]1 (library stock concentration (final ~1000-fold dilution): 10 mM)
NF-kB SEAP reporter activity (RAW-Dual [3]; agonist: LPS (TLR4) 0.1 ug/mL): 0.459
NF-kB SEAP reporter activity (RAW-Dual [3]; [4]): 0.191
NF-kB SEAP reporter activity (RAW-Dual [3]; [5]): 0.127
NF-kB SEAP reporter activity (RAW-Dual [3]; [6]): 0.201

Cc1cc(Nc2cc(N3CCN(C)CC3)nc(/C=C/c3ccccc3)n2)n[nH]1
NF-kB SEAP reporter activity (RAW-Dual [2]; [9]): 1.08
NF-kB SEAP reporter activity (RAW-Dual [2]; [10]): 0.8

COCCOc1ccc2c(c1)ncn2-c1ccc2cccc(N3CCC(N)CC3)c2n1 (library stock concentration (final ~1000-fold dilution): 10 mM)
NF-kB SEAP reporter activity (RAW-Dual [3]; agonist: LPS (TLR4) 0.1 ug/mL): 0.593
NF-kB SEAP reporter activity (RAW-Dual [3]; [4]): 0.758
NF-kB SEAP reporter activity (RAW-Dual [3]; [5]): 0.862
NF-kB SEAP reporter activity (RAW-Dual [3]; [6]): 1.32

COCCOc1ccc2c(c1)ncn2-c1ccc2cccc(N3CCC(N)CC3)c2n1
NF-kB SEAP reporter activity (RAW-Dual [2]; [9]): 2.77
NF-kB SEAP reporter activity (RAW-Dual [2]; [10]): 0.871

Cc1nc(C#Cc2ccnc(Cl)c2)c(C)n1-c1ccc(OC(F)(F)F)cc1
NF-kB SEAP reporter activity (RAW-Dual [2]; [9]): 0.385
NF-kB SEAP reporter activity (RAW-Dual [2]; [10]): 0.305

Cc1nc(C#Cc2ccnc(Cl)c2)c(C)n1-c1ccc(OC(F)(F)F)cc1 (library stock concentration (final ~1000-fold dilution): 10 mM)
NF-kB SEAP reporter activity (RAW-Dual [3]; agonist: LPS (TLR4) 0.1 ug/mL): 0.243
NF-kB SEAP reporter activity (RAW-Dual [3]; [4]): 0.203
NF-kB SEAP reporter activity (RAW-Dual [3]; [5]): 0.111
NF-kB SEAP reporter activity (RAW-Dual [3]; [6]): 0.149

COC(=O)C1=C(C)NC(C)=C(C(=O)OCCN(C)Cc2ccccc2)C1c1cccc([N+](=O)[O-])c1 (stereo not drawn) (library stock concentration (final ~1000-fold dilution): 10 mM)
NF-kB SEAP reporter activity (RAW-Dual [1]; agonist: LPS (TLR4) 0.1 ug/mL): 0.852
NF-kB SEAP reporter activity (RAW-Dual [1]; [4]): 0.441
NF-kB SEAP reporter activity (RAW-Dual [1]; [5]): 0.602
NF-kB SEAP reporter activity (RAW-Dual [1]; [6]): 0.474

COC(=O)C1=C(C)NC(C)=C(C(=O)OCCN(C)Cc2ccccc2)C1c1cccc([N+](=O)[O-])c1 (stereo not drawn)
NF-kB SEAP reporter activity (RAW-Dual [2]; [8]): 0.849

CN(C)c1cccc(-c2c3c(=O)n(-c4ccccc4Cl)[nH]c3cc(=O)n2C)c1 (library stock concentration (final ~1000-fold dilution): 10 mM)
NF-kB SEAP reporter activity (RAW-Dual [1]; agonist: LPS (TLR4) 0.1 ug/mL): 2.01
NF-kB SEAP reporter activity (RAW-Dual [1]; [4]): 0.99
NF-kB SEAP reporter activity (RAW-Dual [1]; [5]): 0.938
NF-kB SEAP reporter activity (RAW-Dual [1]; [6]): 0.886

CN(C)c1cccc(-c2c3c(=O)n(-c4ccccc4Cl)[nH]c3cc(=O)n2C)c1
NF-kB SEAP reporter activity (RAW-Dual [2]; [7]): 1.01
NF-kB SEAP reporter activity (RAW-Dual [2]; [8]): 1.07

CC(=O)SC1CC2=CC(=O)CCC2(C)C2CCC3(C)C(CCC34CCC(=O)O4)C12 (stereo not drawn) (library stock concentration (final ~1000-fold dilution): 10 mM)
NF-kB SEAP reporter activity (RAW-Dual [1]; agonist: LPS (TLR4) 0.1 ug/mL): 0.933
NF-kB SEAP reporter activity (RAW-Dual [1]; [4]): 1.16
NF-kB SEAP reporter activity (RAW-Dual [1]; [5]): 1.11
NF-kB SEAP reporter activity (RAW-Dual [1]; [6]): 1.07

CC(=O)SC1CC2=CC(=O)CCC2(C)C2CCC3(C)C(CCC34CCC(=O)O4)C12 (stereo not drawn)
NF-kB SEAP reporter activity (RAW-Dual [2]; [7]): 1.02
NF-kB SEAP reporter activity (RAW-Dual [2]; [8]): 1.06

CN(C)C(=O)COC(=O)Cc1ccc(OC(=O)c2ccc(NC(=N)N)cc2)cc1.CS(=O)(=O)O (library stock concentration (final ~1000-fold dilution): 10 mM)
NF-kB SEAP reporter activity (RAW-Dual [1]; agonist: LPS (TLR4) 0.1 ug/mL): 0.941
NF-kB SEAP reporter activity (RAW-Dual [1]; [4]): 1.07
NF-kB SEAP reporter activity (RAW-Dual [1]; [5]): 1.02
NF-kB SEAP reporter activity (RAW-Dual [1]; [6]): 0.912

CN(C)C(=O)COC(=O)Cc1ccc(OC(=O)c2ccc(NC(=N)N)cc2)cc1.CS(=O)(=O)O
NF-kB SEAP reporter activity (RAW-Dual [2]; [7]): 1.17
NF-kB SEAP reporter activity (RAW-Dual [2]; [8]): 1.01

Cc1nn(C)c2c1C(c1ccc(C(F)(F)F)cc1)C(C#N)=C(N)O2 (stereo not drawn)
NF-kB SEAP reporter activity (RAW-Dual [2]; [7]): 0.85
NF-kB SEAP reporter activity (RAW-Dual [2]; [8]): 1.16

Cc1nn(C)c2c1C(c1ccc(C(F)(F)F)cc1)C(C#N)=C(N)O2 (stereo not drawn) (library stock concentration (final ~1000-fold dilution): 10 mM)
NF-kB SEAP reporter activity (RAW-Dual [1]; agonist: LPS (TLR4) 0.1 ug/mL): 0.946
NF-kB SEAP reporter activity (RAW-Dual [1]; [4]): 0.699
NF-kB SEAP reporter activity (RAW-Dual [1]; [5]): 1.02
NF-kB SEAP reporter activity (RAW-Dual [1]; [6]): 0.568

CN1CCCN(C(=O)c2cccc(-c3ccc(/C=C4/C(=O)Nc5ccc(Cl)cc54)o3)c2)CC1.Cl (library stock concentration (final ~1000-fold dilution): 10 mM)
NF-kB SEAP reporter activity (RAW-Dual [3]; agonist: LPS (TLR4) 0.1 ug/mL): 0.231
NF-kB SEAP reporter activity (RAW-Dual [3]; [4]): 0.179
NF-kB SEAP reporter activity (RAW-Dual [3]; [5]): 0.0881
NF-kB SEAP reporter activity (RAW-Dual [3]; [6]): 0.15

CN1CCCN(C(=O)c2cccc(-c3ccc(/C=C4/C(=O)Nc5ccc(Cl)cc54)o3)c2)CC1.Cl
NF-kB SEAP reporter activity (RAW-Dual [2]; [9]): 0.317
NF-kB SEAP reporter activity (RAW-Dual [2]; [10]): 0.349

CN(C)CCC=C1c2ccccc2C=Cc2ccccc21.Cl (library stock concentration (final ~1000-fold dilution): 10 mM)
NF-kB SEAP reporter activity (RAW-Dual [3]; agonist: LPS (TLR4) 0.1 ug/mL): 1.08
NF-kB SEAP reporter activity (RAW-Dual [3]; [4]): 0.95
NF-kB SEAP reporter activity (RAW-Dual [3]; [5]): 0.822
NF-kB SEAP reporter activity (RAW-Dual [3]; [6]): 0.732

CN(C)CCC=C1c2ccccc2C=Cc2ccccc21.Cl
NF-kB SEAP reporter activity (RAW-Dual [2]; [9]): 1.86
NF-kB SEAP reporter activity (RAW-Dual [2]; [10]): 1.18

COc1ccc2cc1Oc1ccc(cc1)CC1c3c(cc4c(c3Oc3cc5c(cc3OC)CCN(C)C5C2)OCO4)CCN1C (stereo not drawn)
NF-kB SEAP reporter activity (RAW-Dual [2]; [9]): 1.58
NF-kB SEAP reporter activity (RAW-Dual [2]; [10]): 2.32
